Article PMC7819943, “Rice protein-binding microarrays: a tool to detect cis-acting elements near promoter regions in rice”
This is one part of the list.

target: T1, OsWOX13 (Oryza sativa, UniProt Q5QMM3 1-267); experiment: protein-binding microarray (RPBM); PBS, 2% BSA, 51.3 ng/ul salmon testes DNA, 50 uM zinc acetate, 200 nM TF, 25 C, 1 h; high values mean tight binding; settings: protein: recombinant; tags: N-terminal polyhistidine and DsRed monomer fusion (pET32a); label: CyDye5-dUTP incorporated in the synthesized complementary strand; 3' TTTTT single-stranded linker to array surface; dsDNA, one strand shown
T1 sequence: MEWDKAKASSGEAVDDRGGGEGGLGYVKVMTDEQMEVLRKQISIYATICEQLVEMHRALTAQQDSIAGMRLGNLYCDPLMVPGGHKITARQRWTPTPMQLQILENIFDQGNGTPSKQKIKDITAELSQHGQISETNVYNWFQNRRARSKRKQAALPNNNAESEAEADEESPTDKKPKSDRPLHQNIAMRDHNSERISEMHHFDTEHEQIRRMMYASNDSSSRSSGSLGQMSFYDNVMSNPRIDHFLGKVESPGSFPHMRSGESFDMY
Method in brief: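 Transcription factors, each fused N-terminally to a polyhistidine tag and DsRed, were expressed in E. coli BL21-CodonPlus and purified on Ni–NTA. A custom Agilent array was made double-stranded by primer extension with Cy5-dUTP and blocked with 2% BSA. It was incubated with 200 nM protein in PBS, 2% BSA, salmon testes DNA and 50 µM zinc acetate at 25 °C for 1 h, then washed. The binding signal is per-feature fluorescence intensity (arbitrary units) read on an Axon 4000B scanner.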

Point of comparison: “CTAATATAATCAAAACCATCATGAAATTTGGTTTAGGGAACGGAGTCACCTAGTGCAG”, binding signal 5520 fluorescence intensity (a.u.). Against it:
- TCTAAATTATGTATCTCTCAATATCAATATGTAAATATTACGGAGTCACCTAGTGCAG — lower, 3870 fluorescence intensity (a.u.)
- TGTGATGGAAAAGTTGAAAGTTTGTGTGTAGGTAAGTTTTCGGAGTCACCTAGTGCAG — higher, 5640 fluorescence intensity (a.u.)
- TCCTAAACTGCTAATTTCTTATTTGTTCTGTCATAAAATACGGAGTCACCTAGTGCAG — higher, 8000 fluorescence intensity (a.u.)
- CACTCCCCATCCAATCAAACTCCTCCGATCCCAATCCAACCGGAGTCACCTAGTGCAG — lower, 5160 fluorescence intensity (a.u.)
- TCCATTAAATTTGAATGTCTCTTCCCTACAAAATGTTACTCGGAGTCACCTAGTGCAG — higher, 5620 fluorescence intensity (a.u.)
- AACTAATTAATAATTATGACCATTAACAAACACACAAATACGGAGTCACCTAGTGCAG — higher, 26000 fluorescence intensity (a.u.)
- TGCATGAATTGATCAACAAGACAAAAGTTACAAAACATGTCGGAGTCACCTAGTGCAG — lower, 4160 fluorescence intensity (a.u.)
- CACAATTGCGCATAGTTAACGATTAATAACCAAAGCCTTGCGGAGTCACCTAGTGCAG — lower, 3400 fluorescence intensity (a.u.)
- CGGTCGCCAATTAACCATTCAGAAATCAGAAGAGTAGCAACGGAGTCACCTAGTGCAG — lower, 4900 fluorescence intensity (a.u.)
- TTTCTTAAGTGCTTTTAATTAGCAACGTAACTGGAGGAGCCGGAGTCACCTAGTGCAG — higher, 8140 fluorescence intensity (a.u.)
- TTGGACACTAATTATAAATATTAAATATAGACTATTAATACGGAGTCACCTAGTGCAG — lower, 4640 fluorescence intensity (a.u.)
- AACAATTAACCAATGATGATGTTCATCTTTGTACTGAACTCGGAGTCACCTAGTGCAG — higher, 8130 fluorescence intensity (a.u.)
- TTTGATGTTAATTGATGCTCTATGTTCTGTCAAGTCATTGCGGAGTCACCTAGTGCAG — higher, 41300 fluorescence intensity (a.u.)
- GTTCAAATCTTGATTGGATTTAAAAGTAGTATCTTTTACTCGGAGTCACCTAGTGCAG — higher, 17500 fluorescence intensity (a.u.)
- TTGTAATAATTAAAATAAAATTTATTTTACGCTAATGATCCGGAGTCACCTAGTGCAG — higher, 13100 fluorescence intensity (a.u.)
- ATCTCAAAATTTGTAAAATTATAATGGCATGGTTCCAATTCGGAGTCACCTAGTGCAG — lower, 4470 fluorescence intensity (a.u.)
- GTGGTAATGTCTCTGCAAATTAAATCGTGATTTTAGAGGACGGAGTCACCTAGTGCAG — higher, 9210 fluorescence intensity (a.u.)
- CGTGGCTAATTTGACTCAGTCTTCAACTGACGTGGTAATTCGGAGTCACCTAGTGCAG — higher, 15900 fluorescence intensity (a.u.)
- CATTCATTTAGATGTTAATGAATTTAGACATATATATGTGCGGAGTCACCTAGTGCAG — higher, 7780 fluorescence intensity (a.u.)
- TCAAATAAATTAAGAAATCTCTTTTGTGAATTCTCTCTGACGGAGTCACCTAGTGCAG — higher, 14000 fluorescence intensity (a.u.)
- ACACCTAATTAATGTCCCATGGAATCAGCAATCAGATGGCCGGAGTCACCTAGTGCAG — higher, 21700 fluorescence intensity (a.u.)
- ACTGTGATTTAACAAGTAAAATATTGTTTGATAGTTCAAACGGAGTCACCTAGTGCAG — higher, 9190 fluorescence intensity (a.u.)
- TCCTAAATTTGGTAGCAATCTAGAACTTTCTTCGCTATGGCGGAGTCACCTAGTGCAG — higher, 10300 fluorescence intensity (a.u.)
- ATCTGTCTTAGTTAATTTAATTTAATTTATGTTGGGTGGACGGAGTCACCTAGTGCAG — higher, 33900 fluorescence intensity (a.u.)
- CCACAACTTCAATAACAGGTGAATTTGACTTCTTCAGTGGCGGAGTCACCTAGTGCAG — lower, 3990 fluorescence intensity (a.u.)
- TGTACATGATTAATTGCAATTAGCTAGTGCGTATATAGAACGGAGTCACCTAGTGCAG — higher, 20500 fluorescence intensity (a.u.)
- ACATTAACATTACATTTATTCCCCTAAAACGAAAACTTCTCGGAGTCACCTAGTGCAG — lower, 3320 fluorescence intensity (a.u.)
- CAGTAATTGATCCGACTGCTGATTCGATGGCAGTAATCTTCGGAGTCACCTAGTGCAG — higher, 20100 fluorescence intensity (a.u.)
- TCTAGCATGATTGGGAGTTCGTTCGCCGCCGTCTCTGCCACGGAGTCACCTAGTGCAG — higher, 38900 fluorescence intensity (a.u.)
- GGAATAAATTTACCTTAGACAAGACTACTCGCGCAAGTCACGGAGTCACCTAGTGCAG — higher, 12300 fluorescence intensity (a.u.)
- TTAATAATTAAAATAACAATTTACAAACGACCGGATTAACCGGAGTCACCTAGTGCAG — higher, 6490 fluorescence intensity (a.u.)
- TAATACTTAATTAACTATAAGAAAATACGTTGCTCCGTTTCGGAGTCACCTAGTGCAG — higher, 8340 fluorescence intensity (a.u.)
- TTTAATTTTGAATTTTAATTAATTGGAGTTTACACGGACTCGGAGTCACCTAGTGCAG — higher, 39800 fluorescence intensity (a.u.)
- TCAAGAGACGCGATTAGCTAATTATCTCGATGAGTTTTATCGGAGTCACCTAGTGCAG — lower, 4130 fluorescence intensity (a.u.)
- GTGTTGATTTAATCACAAAACTACAATGTTTATAACACCACGGAGTCACCTAGTGCAG — higher, 30700 fluorescence intensity (a.u.)
- CTCAATCAGTCAATCTGTATACAGCAACTCAGCGATCTTACGGAGTCACCTAGTGCAG — higher, 18500 fluorescence intensity (a.u.)
- AGCAAATTAAGAAGATTGCCATCTTTCGAAAGCGTCAGGACGGAGTCACCTAGTGCAG — higher, 11900 fluorescence intensity (a.u.)
- CTGCACCAAACTAATTTATACATAATGCAAATTTCAGAGCCGGAGTCACCTAGTGCAG — higher, 7690 fluorescence intensity (a.u.)
- CAGTAGATGATGAGTAATGTAGAAATCTGCAATGTGGGTTCGGAGTCACCTAGTGCAG — higher, 7730 fluorescence intensity (a.u.)
- AGTAGATGATAGAACTATATCAAATTTGCACAGTGAAGTCCGGAGTCACCTAGTGCAG — higher, 7140 fluorescence intensity (a.u.)
- GCCTTAAATTAGCCCTCAAGGATCCAAACAGGTGGGCTAACGGAGTCACCTAGTGCAG — higher, 7150 fluorescence intensity (a.u.)
- CACCTAAACCAAATCAATTTATTTAAGCAAATTTTGAGGGCGGAGTCACCTAGTGCAG — higher, 19200 fluorescence intensity (a.u.)
- CCTGCTATGATTAATACTAGTACTGTCACTTACCTCTCCGCGGAGTCACCTAGTGCAG — lower, 3820 fluorescence intensity (a.u.)
- GCTAATTGTGAGTTTGTGACCTTCGTTTCGGTTGGGTTGACGGAGTCACCTAGTGCAG — higher, 34600 fluorescence intensity (a.u.)
- GTTAAATTTAGGAGTTGGAGCTATACCAAACAGGCCCTAACGGAGTCACCTAGTGCAG — lower, 3420 fluorescence intensity (a.u.)
- GGTTAATCAATCAATCAGTTAATTACACAATTACTCACATCGGAGTCACCTAGTGCAG — higher, 57300 fluorescence intensity (a.u.)
- ATACATTGAATTTAAATTTGTATGTTTATGTACTGATGTACGGAGTCACCTAGTGCAG — higher, 6870 fluorescence intensity (a.u.)
- GTCGATTACCAATTTTCACTGTTAACACACGGTCAACCCACGGAGTCACCTAGTGCAG — higher, 20600 fluorescence intensity (a.u.)
- TGTTGATTTTACCTATCGGATTGGAAGAAGATAACTATTCCGGAGTCACCTAGTGCAG — lower, 5230 fluorescence intensity (a.u.)
- GTATTTGATTTATTTAGTGTTCTTAACATGATGTAAACAACGGAGTCACCTAGTGCAG — higher, 9930 fluorescence intensity (a.u.)
- TCACCCGACATGAATTGATTGATGAGCCCGCAGAGATAATCGGAGTCACCTAGTGCAG — higher, 24400 fluorescence intensity (a.u.)
- TTCCAAGATGTTATCACCAATCATCCCATGGCATAACGGACGGAGTCACCTAGTGCAG — higher, 6240 fluorescence intensity (a.u.)
- TTAAATCAAGATTGAATATATTTTGATAATATGTTTGTTTCGGAGTCACCTAGTGCAG — higher, 24300 fluorescence intensity (a.u.)
